Laboratory results published in PubChem BioAssay AID200 (DTP/NCI, 2004).
Inconclusive results and toxic doses are left out. For part of its entries the source gives two or more results. The other results are left out here. There may be further records. Values that stand side by side are repeated measurements (runs, samples, wells, individuals or studies).

Test system: B6C3F1 mice, B16 melanoma ip, median survival T/C
Test: NCI In Vivo Anticancer Drug Screen. Data for tumor model B16 Melanoma (intraperitoneal) in B6C3F1 mice
Details: endpoint: median survival time, higher = longer survival
Description: The antitumor activity of compounds was measured in mice bearing transplantable tumors. Survival or tumor size were measured and the results are expressed as the measurement made in the treated group (T) divided by the measurement made in the vehicle treated control group (C). The tumor model used in this assay is B16 Melanoma (intraperitoneal) in B6C3F1 mice

[1] = dose: 50.0 mg/kg/injection, schedule: Q01DX009 (ip), vehicle: Klucel (hydroxypropylcellulose) (HPC)
[2] = dose: 0.75 mg/kg/injection, schedule: Q01DX009 (ip), vehicle: saline
[3] = dose: 100.0 mg/kg/injection, schedule: Q01DX009 (ip), vehicle: saline
[4] = dose: 6.25 mg/kg/injection, schedule: Q01DX009 (ip), vehicle: saline with Tween-80

## [Cl][Pt+2][Cl].[NH-]C1CCC1.[NH2-]
dose: 1.5 mg/kg/injection, schedule: Q01DX009 (ip), vehicle: saline
  T/C: 122 % of control and 171 % of control

## COC(=O)Nc1cn2cc(C(=O)c3cccs3)ccc2n1
[1]
  T/C: 89 % of control and 167 % of control

## O=S1(=O)CS(=O)(=O)OCCO1
dose: 25.0 mg/kg/injection, schedule: Q01DX009 (ip), vehicle: Klucel (hydroxypropylcellulose) (HPC)
  T/C: 123 % of control and 179 % of control

## COC(COC(=O)N1CCN(C=O)CC1)C1=C(N2CC2)C(=O)C(C)=C(N2CC2)C1=O (stereo unspecified)
[2]
  T/C: 115 % of control and 162 % of control

## CCN(CC)CC(=O)O[C@]1(CC)C(=O)OCc2c1cc1n(c2=O)Cc2cc3ccccc3nc2-1
dose: 4.0 mg/kg/injection, schedule: Q01DX009 (ip), vehicle: water
  T/C: 124 % of control and 150 % of control

## O=C(CCl)N1c2ccccc2Oc2cc3ccccc3cc21
[3]
  T/C: 113 % of control and 153 % of control

## COC(=Nc1ccccc1)SSC(C)C
[4]
  T/C: 98 % of control and 160 % of control

## Cn1cc(C2NC(=O)c3ccccc3N2)c2ccccc21 (stereo unspecified)
dose: 200.0 mg/kg/injection, schedule: Q01DX009 (ip), vehicle: Klucel (hydroxypropylcellulose) (HPC)
  T/C: 120 % of control and 162 % of control

## COC(=O)C12OCC34C(CC5C(C)=CC(=O)C(O)C5(C)C3C(O)C1O)OC(=O)C(OC(=O)CC(C)C)C24 (stereo unspecified)
dose: 0.12 mg/kg/injection, schedule: Q01DX009 (ip), vehicle: saline + alcohol
  T/C: 119 % of control and 153 % of control

## Oc1cc(O)cc(/C=C/c2ccc(O)c(O)c2)c1
dose: 25.0 mg/kg/injection, schedule: Q01DX009 (ip), vehicle: DMSO
  T/C: 118 % of control and 153 % of control

## C#CCNC1=C(C)C(=O)C2=C(C1=O)[C@H](COC(N)=O)[C@]1(OC)[C@@H]3N[C@@H]3CN21
dose: 3.0 mg/kg/injection, schedule: Q01DX009 (ip), vehicle: distilled water + Tween-80
  T/C: 100 % of control, 159 % of control, 178 % of control
dose: 6.0 mg/kg/injection, schedule: Q01DX009 (ip), vehicle: distilled water + Tween-80
  T/C: 94 % of control, 170 % of control, 303 % of control

## COC(=O)[C@@]12OC[C@]34[C@H]([C@@H](O)[C@@H]1O)[C@@]1(C)CC(=O)C(O)=C(C)[C@@H]1C[C@H]3OC(=O)[C@H](OC(=O)/C=C(\C)C(C)CO)[C@@H]24 (stereo partly specified)
dose: 0.5 mg/kg/injection, schedule: Q01DX009 (ip), vehicle: saline + alcohol
  T/C: 111 % of control, 121 % of control, 155 % of control

## COc1ccc(-c2c3c(cc4cc5c(cc24)OCO5)C(=O)OC3)cc1OC
dose: 48.0 mg/kg/injection, schedule: Q01DX009 (ip), vehicle: Klucel (hydroxypropylcellulose) (HPC)
  T/C: 99 % of control and 170 % of control

## CCNC(=O)OCc1c(COC(=O)NCC)c(-c2ccc(Cl)c(Cl)c2)n2c1CCC2
[4]
  T/C: 121 % of control and 154 % of control

## COC1CC(C)C(OC)C2=CC(=O)C=C(NC(=O)/C(C)=C/C=C\C(C)C(OC(N)=O)/C(C)=C\C(C)C1OC)C2=O (stereo unspecified)
dose: 1.25 mg/kg/injection, schedule: Q01DX009 (ip), vehicle: saline + alcohol
  T/C: 111 % of control and 154 % of control

## CCC12C[N+]3([O-])CCc4c([nH]c5ccccc45)C(C(=O)OC)(c4cc5c(cc4OC)N(C)C4C(O)(C(=O)OC)C(OC(C)=O)C6(CC)C=CCN7CCC54C76)CC(C3)C1O2 (stereo unspecified)
dose: 2.5 mg/kg/injection, schedule: Q01DX009 (ip), vehicle: water
  T/C: 101 % of control, 113 % of control, 189 % of control

## COC1CC2C=C(C)/C=C/C=C/C(=O)NC(c3ccccc3)C/C=C/CCC(O)CC(=O)C2=C1O (stereo unspecified)
dose: 6.0 mg/kg/injection, schedule: Q01DX009 (ip), vehicle: Klucel (hydroxypropylcellulose) (HPC)
  T/C: 120 % of control and 155 % of control

## CN=S(=O)(OCCCCCOS(=O)(=NC)c1ccccc1)c1ccccc1 (stereo unspecified)
dose: 3.12 mg/kg/injection, schedule: Q01DX009 (ip), vehicle: saline with Tween-80
  T/C: 104 % of control and 154 % of control
[4]
  T/C: 100 % of control and 172 % of control

## O=C1C=CC(=O)O1 (tested in a mixture with another compound)
dose: 100.0 mg/kg/injection, schedule: Q04DX003 (ip), vehicle: saline
  T/C: 116 % of control and 172 % of control
dose: 200.0 mg/kg/injection, schedule: Q04DX003 (ip), vehicle: saline
  T/C: 122 % of control and 157 % of control

## O=NN(CCCl)C(=O)NCCCl
dose: 24.0 mg/kg/injection, schedule: Q01DX001 (ip), vehicle: saline
  T/C: 107 % of control and 154 % of control

## O=P1(N(CCCl)CCCl)NCCCO1 (stereo unspecified)
dose: 400.0 mg/kg/injection, schedule: Q01DX001 (ip), vehicle: saline
  T/C: 88 % of control and 198 % of control

## CC(C)NC(=O)OCc1c(COC(=O)NC(C)C)c(-c2ccc(Cl)c(Cl)c2)n2c1CCC2
dose: 80.0 mg/kg/injection, schedule: Q01DX009 (ip), vehicle: Klucel (hydroxypropylcellulose) (HPC)
  T/C: 106 % of control and 319 % of control

## CNC(=O)OCc1c(COC(=O)NC)c(-c2ccc(F)cc2)n2c1CCC2
dose: 12.5 mg/kg/injection, schedule: Q01DX009 (ip), vehicle: Klucel (hydroxypropylcellulose) (HPC)
  T/C: 119 % of control and 154 % of control

## O=C(O)c1cc(C(=O)O)c(C(=O)O)cc1C(=O)O.[NH2-].[NH2-].[NH2-].[NH2-].[Pt+2].[Pt+2]
dose: 2.0 mg/kg/injection, schedule: Q01DX009 (ip), vehicle: water
  T/C: 124 % of control and 152 % of control

## O=C1c2c(O)ccc(O)c2C(=O)c2c(NCCNCCO)ccc(NCCNCCO)c21
dose: 4.5 mg/kg/injection, schedule: Q01DX001 (ip), vehicle: acid diluted with saline
  T/C: 120 % of control and 184 % of control

## COc1cc2c(c(OC)c1OC)-c1ccc(OC)c(=O)cc1[C@@H](NC(C)=O)CC2
[2]
  T/C: 106 % of control and 168 % of control

## CC[C@]1(O)C[C@H]2CN(CCc3c([nH]c4ccccc34)[C@@](C(=O)OC)(c3cc4c(cc3OC)N(C=O)[C@H]3[C@@](O)(C(=O)OC)[C@H](OC(C)=O)[C@]5(CC)C=CCN6CC[C@]43[C@@H]65)C2)C1
dose: 0.12 mg/kg/injection, schedule: Q01DX009 (ip), vehicle: water
  T/C: 90 % of control and 175 % of control
dose: 0.25 mg/kg/injection, schedule: Q01DX009 (ip), vehicle: water
  T/C: 90 % of control and 171 % of control

## COc1cccc2c1C(=O)c1c(O)c3c(c(O)c1C2=O)C[C@@](O)(C(=O)CO)C[C@@H]3OC1CC(N(C)C)C(O)C(C)O1 (stereo partly specified)
dose: 0.25 mg/kg/injection, schedule: Q01DX009 (ip), vehicle: saline
  T/C: 117 % of control and 153 % of control

## c1cc(OCC2CO2)ccc1OCC1CO1 (stereo unspecified)
dose: 100.0 mg/kg/injection, schedule: Q01DX009 (ip), vehicle: Klucel (hydroxypropylcellulose) (HPC)
  T/C: 109 % of control and 158 % of control

## CS(=O)(=O)CS(=O)(=O)OCCF
dose: 25.0 mg/kg/injection, schedule: Q01DX009 (ip), vehicle: saline
  T/C: 113 % of control, 156 % of control, 194 % of control

## O=C1N(CC2CO2)CCN1CC1CO1 (stereo unspecified)
[3]
  T/C: 116 % of control and 179 % of control

## COC1=C2C[C@@H](C)C[C@@H](OC)[C@@H](O)[C@H](C)/C=C(\C)[C@@H](OC(N)=O)[C@H](OC)/C=C\C=C(/C)C(=O)NC(=CC1=O)C2=O
dose: 4.0 mg/kg/injection, schedule: Q01DX009 (ip), vehicle: saline with Tween-80
  T/C: 118 % of control and 157 % of control

## C1CN(P2(N3CC3)=NP(N3CC3)(N3CC3)=NP(N3CC3)(N3CC3)=N2)CCO1 (stereo unspecified)
dose: 32.0 mg/kg/injection, schedule: Q02DX009 (ip), vehicle: saline
  T/C: 103 % of control and 185 % of control

## COc1cc(C2c3cc4c(cc3C(O)C(CO)C2CO)OCO4)cc(OC)c1OC (stereo unspecified)
dose: 50.0 mg/kg/injection, schedule: Q01DX009 (ip), vehicle: saline with Tween-80
  T/C: 114 % of control and 155 % of control
dose: 100.0 mg/kg/injection, schedule: Q01DX009 (ip), vehicle: saline with Tween-80
  T/C: 113 % of control, 151 % of control, 178 % of control
dose: 200.0 mg/kg/injection, schedule: Q01DX009 (ip), vehicle: saline with Tween-80
  T/C: 124 % of control and 153 % of control

## CCCCCCCCCCCCCCCC(=O)OCC1OC(n2ccc(N)nc2=O)C(O)C1O (stereo unspecified)
dose: 15.0 mg/kg/injection, schedule: Q01DX009 (ip), vehicle: saline with Tween-80
  T/C: 120 % of control and 158 % of control

## N#Cc1ccc(NN=O)nc1
dose: 12.5 mg/kg/injection, schedule: Q01DX009 (ip), vehicle: water
  T/C: 118 % of control and 169 % of control
dose: 25.0 mg/kg/injection, schedule: Q01DX009 (ip), vehicle: water
  T/C: 121 % of control and 157 % of control

## O=NN(CCCl)C(=O)Oc1cc(Cl)c(Cl)cc1Cl
[1]
  T/C: 111 % of control and 165 % of control

## C/C=C/c1cc2n(c1)C(=O)c1cc(OC3OC(C)C(NC)C(C)(O)C3O)c(C)c(O)c1NC2O (stereo unspecified)
dose: 0.5 micrograms/kg/injection, schedule: Q01DX009 (ip), vehicle: saline
  T/C: 104 % of control and 156 % of control

## COC12C(COC(N)=O)C3=C(C(=O)C(C)=C(N)C3=O)N1CC1C2N1C (stereo unspecified)
dose: 4.0 mg/kg/injection, schedule: Q01DX009 (ip), vehicle: saline
  T/C: 95 % of control and 154 % of control
